Results published in the supplement of paper PMC9174493.
Counter-ions that a name gives are not always drawn. This is one part of the list. Single values of this set are uncertain. Values with irradiation are relative to irradiated vehicle.

Tested on: A549-Dual
Assay: NF-kB reporter (SEAP) activity, viability-corrected, relative to vehicle (fold change vs vehicle); higher = more activation of STING-IRF / NF-kB immune response reporter
Details: 10 µM; irradiation: 8 Gy/4 fr
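Also: viability correction based on the alamar blue assay, with concentrations leaving 10% survival or less dropped.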

SMILES | NF-kB reporter
CC(=O)C1CCC2C3CCC4=CC(=O)CCC4(C)C3CCC12C (centres undefined) [Progesterone] | 0.453
NCCCC(O)(P(=O)(O)O)P(=O)(O)[O][Na].O.O.O (centres undefined) [Alendronate sodium trihydrate] | 0.835
Cc1cc2c(cc1S(N)(=O)=O)S(=O)(=O)CCC2 [Meticrane] | 0.971
Cc1cc(NS(=O)(=O)c2ccc(N)cc2)no1 [Sulfamethoxazole] | 0.916
COc1ccc(NS(=O)(=O)c2ccc(N)cc2)nn1 [Sulfamethoxypyridazine] | 0.827
Cc1ccccc1N1CCN(CCc2nnc3n2CCCC3)CC1.Cl [Dapiprazole Hydrochloride] | 0.995
Cc1c(C)c2c(c(C)c1O)CCC(C)(COc1ccc(CC3SC(=O)NC3=O)cc1)O2 (centres undefined) [Troglitazone (CS-045)] | 0.297
Cl.NCc1ccc(S(N)(=O)=O)cc1 [Mafenide hydrochloride] | 0.704
CC(C)(CO)C(O)C(=O)NCCC(=O)[O-].[Na+] [D-Pantothenate Sodium] | 0.67
CCCCOCc1ccc(O)c(OC)c1 [Vanillyl Butyl Ether] | 0.634
CC(C)=C1C/C=C(\C)CC/C=C(\C)CC1=O [Germacrone] | 1.06
COc1ccc2cc(C(=O)O)ccc2c1 [6-Methoxy-2-naphthoic acid] | 0.628
Clc1ccc(C(Cn2ccnc2)OCc2ccc(Sc3ccccc3)cc2)c(Cl)c1.O=[N+]([O-])O (centres undefined) [Fenticonazole Nitrate] | 0.467
CC(NC(CCc1ccccc1)C(=O)O)C(=O)N1CCCC1C(=O)O.O.O (centres undefined) [Enalaprilat Dihydrate] | 0.929
O=C1CCCC(=O)C1C(=O)c1ccc(C(F)(F)F)cc1[N+](=O)[O-] [Nitisinone] | 1.02
C=C1/C(=C\C=C2/CCC[C@]3(C)[C@@H]([C@H](C)/C=C/[C@H](C)C(C)C)CC[C@@H]23)C[C@@H](O)C[C@@H]1O [Doxercalciferol] | 0.749
NC(=O)NC(CCC(=O)O)C(=O)O (centres undefined) [Carglumic Acid] | 0.991
COCCCOc1ccnc(CS(=O)c2nc3ccccc3[n]2[Na])c1C (centres undefined) [Rebeprazole sodium] | 0.631
CC1(C)NC(=O)N(c2ccc([N+](=O)[O-])c(C(F)(F)F)c2)C1=O [Nilutamide] | 0.62
CC(=O)Oc1cc(C(C)C)c(OCCN(C)C)cc1C.Cl [Moxisylyte hydrochloride] | 0.771

SMILES | NF-kB reporter
NC(=O)CC(N)C(=O)O.O (stereo not drawn) [L(+)-Asparagine monohydrate] | 0.719
CC(NCc1ccc(OCc2cccc(F)c2)cc1)C(N)=O (centres undefined) [Safinamide] | 0.849
CCc1ccc(CCOc2ccc(CC3SC(=O)NC3=O)cc2)nc1.Cl (centres undefined) [Pioglitazone HCl] | 0.655
CNCCc1ccccn1.CS(=O)(=O)O.CS(=O)(=O)O [Betahistine mesylate] | 0.872
O=c1c(-c2ccc(O)cc2)coc2cc(OC3OC(CO)C(O)C(O)C3O)ccc12 (centres undefined) [Daidzin] | 0.886
N[C@@H](CCC(=O)O)C(=O)O [(S)-Glutamic acid] | 0.554
COC(=O)Nc1nc2ccc(C(=O)c3ccc(F)cc3)cc2[nH]1 [Flubendazole] | 0.783
CCCNCC(O)COc1ccccc1C(=O)CCc1ccccc1 (centres undefined) [Propafenone HCl] | 0.676
CCCCCCCCCCCCCCCCOP(=O)([O-])OCC[N+](C)(C)C [Miltefosine] | 0.995
O=C1Nc2ccccc2C1=O [Isatin] | 0.691
C#CCN(C)Cc1ccccc1.Cl [Pargyline hydrochloride] | 0.765
CC12CC3CC(C)(C1)CC(N)(C3)C2.Cl [Memantine HCl] | 0.638
CC(C)OC(=O)C(C(=O)OC(C)C)=C1SC=CS1 [Malotilate] | 0.8
COc1cc(Cc2cnc(N)nc2N)cc(OC)c1OC [Trimethoprim] | 0.97
CN(CCN1CCC(OC(=O)Nc2ccccc2-c2ccccc2)CC1)C(=O)c1ccc(CN2CCC(C(N)=O)CC2)cc1 [Revefenacin] | 0.816
Nc1c2c(nc3ccccc13)CCCC2 [Tacrine hydrochloride hydrate] | 0.825
NS(=O)(=O)c1cc2c(cc1Cl)N=CNS2(=O)=O [Chlorothiazide] | 0.972
CS(=O)(=O)O.CS(=O)(=O)O.N=C(N)Nc1ccc(C(=O)Oc2ccc3cc(C(=N)N)ccc3c2)cc1 [Nafamostat Mesylate] | 0.794
O=C1C(N(CO)C(=O)NCO)N(CO)C(=O)N1CO (centres undefined) [Diazolidinyl urea] | 1.19
